# Experimental data as given in PubChem BioAssay AID488969 (Vanderbilt High Throughput Screening Facility, 2010).
# The full ranking holds about 110,000 compounds; the median of “z-score” is about -0.1, and the highest 2% start at about 2. Some of the results follow. Activity calls are given as the source filed them.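 How the source made its calls: active means z-score in the third read window above 3 or below -3; inactive means the rest.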
# Biological target: Metabotropic glutamate receptor 8 (Rattus norvegicus) (UniProt P70579)
# Experiment: mGluR8 Gi/Go-coupled signaling modulation – cell-based, rat, thallium flux, HTS, primary screen (AID 488969)
# Settings: HEK293 rat mGluR8, GIRK (G protein-gated inwardly rectifying potassium channel) thallium flux, FluoZin2; at 10 µM; stronger effect = higher value; submaximal glutamate (EC20) added with thallium
# Chain of UniProt P70579 (P70579 whole entry, looked up): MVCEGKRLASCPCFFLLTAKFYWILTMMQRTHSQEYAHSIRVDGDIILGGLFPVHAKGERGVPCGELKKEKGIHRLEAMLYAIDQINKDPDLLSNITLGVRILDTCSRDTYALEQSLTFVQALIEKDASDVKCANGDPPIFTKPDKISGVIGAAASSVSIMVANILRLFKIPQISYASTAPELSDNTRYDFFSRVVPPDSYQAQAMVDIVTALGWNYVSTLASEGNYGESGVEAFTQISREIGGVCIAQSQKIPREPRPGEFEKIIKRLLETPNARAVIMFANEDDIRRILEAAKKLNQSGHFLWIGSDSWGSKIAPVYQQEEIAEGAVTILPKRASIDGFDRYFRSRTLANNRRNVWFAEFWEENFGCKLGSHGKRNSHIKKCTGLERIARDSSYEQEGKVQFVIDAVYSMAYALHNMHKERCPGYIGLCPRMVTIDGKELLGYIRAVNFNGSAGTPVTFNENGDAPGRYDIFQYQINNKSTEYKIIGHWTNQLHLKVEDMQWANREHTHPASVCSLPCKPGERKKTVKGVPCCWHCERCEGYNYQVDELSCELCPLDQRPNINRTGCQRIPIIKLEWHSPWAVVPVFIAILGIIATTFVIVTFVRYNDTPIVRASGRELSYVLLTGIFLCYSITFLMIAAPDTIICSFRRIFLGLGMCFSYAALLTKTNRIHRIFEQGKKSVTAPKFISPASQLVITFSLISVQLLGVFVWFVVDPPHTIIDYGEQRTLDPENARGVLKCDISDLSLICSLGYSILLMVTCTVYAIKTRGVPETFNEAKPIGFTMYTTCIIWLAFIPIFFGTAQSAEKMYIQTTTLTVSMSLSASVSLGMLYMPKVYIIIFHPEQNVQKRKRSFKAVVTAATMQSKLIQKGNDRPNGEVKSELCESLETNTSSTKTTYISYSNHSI
row,SMILES,z-score
1,CCCCN1C(=O)C(NC(=O)c2cccnc2)(C(F)(F)F)C2=C1CC(C)(C)CC2=O (centres undefined),0.0778
2,O=C1c2ccccc2NC2CCCCC12 (centres undefined),-0.175
3,COCCn1c(=NC(=O)c2sc3ccccc3c2Cl)sc2cc(S(N)(=O)=O)ccc21,-0.436
4,CCOc1ccc(NC(=O)CSc2nnc(CCNC(=O)c3ccc(OC)cc3)n2C)cc1,-0.146
5,CCOC(=O)c1sc(/N=C/N(C)C)nc1C,-0.0764
6,N#CC1=C(N)N(c2ccccc2)C(c2ccccc2)C1(C#N)C#N (centres undefined),-0.311
7,COc1cccc(-c2nc3n(n2)C(c2ccccc2Cl)C(C(N)=O)=C(C)N3)c1 (centres undefined),1.07
8,CCCSc1nnc2n(-c3ccccc3OC)c(=O)c3c4c(sc3n12)CCC4,-1.87
9,Cc1ccc(Cn2c(CN3CC(C)OC(C)C3)nc3c2c(=O)n(C)c(=O)n3C)cc1 (centres undefined),-0.564
10,CCc1nc(NCC(C)C)c(C#N)c2c1COC(C)(C)C2,-0.103
11,Nn1cc(-c2ccccc2)nc1SCC(=O)Nc1ccc2c(c1)OCO2,-0.105
12,CCCc1cc(=O)oc2cc(OCC(=O)OC)cc(OCC(=O)OC)c12,-0.342
13,N#Cc1cc2c(=O)n3ccccc3nc2n(Cc2ccco2)c1=NC(=O)c1ccco1,-0.248
14,Cc1cc(C)n2nnnc2c1C#N,0.205
15,CCC(C)c1ccccc1OCCOCCN1CCCC1 (centres undefined),0.0652
16,Nc1c(-c2ccccc2)c(CSc2nc3ccccc3[nH]2)nn1-c1cccc(Cl)c1,-1.09
17,Cc1ccc(-c2nn(CC(=O)NCC3CCCO3)c(=O)c3ccccc23)cc1 (centres undefined),-0.157
18,CC(C)c1ccc(C2C(C#N)=C(N)N3C(=C2C#N)Sc2ccccc23)cc1 (centres undefined),0.0725
19,O=C(NC(Nc1nc2ccc([N+](=O)[O-])cc2s1)(C(F)(F)F)C(F)(F)F)c1ccccc1,active: 6.52
20,COc1ccc(CN2CCN(C(=O)c3cccs3)CC2)cc1,-0.485
21,CCOc1c(Br)ccc2c1sc1nc[nH]c(=O)c12,-0.237
22,O=[N+]([O-])c1cccc(-c2nc(-c3ccccc3)c(-c3cccs3)[nH]2)c1,-0.0655

row,SMILES,z-score
1,Cc1ccc(C(=O)Oc2cccc(NC(=O)c3ccccc3)c2)cc1C,-0.0956
2,Cc1cccc(-c2noc(CN(C(=O)c3c(-c4ccccc4Cl)noc3C)C(C)C)n2)c1,0.261
3,CCSC1=N/C(=C\c2ccc(-c3ccccc3[N+](=O)[O-])o2)C(=O)S1,-0.287
4,O=C(CCCSc1nc2ccccc2[nH]1)NCc1ccc(Cl)cc1,-0.328
5,O=C(COC(=O)c1ccccc1[N+](=O)[O-])c1ccc(C2CCCCC2)cc1,0.0255
6,Cc1ccc(S(=O)(=O)NCCSc2nnnn2-c2ccccc2)cc1,-0.667
7,Cc1cnc(NC(=O)CSc2nc3ccccc3s2)s1,0.44
8,O=C(COC(=O)[C@@H]1CC(O)CN1S(=O)(=O)c1ccc([N+](=O)[O-])cc1)NC12CC3CC(CC(C3)C1)C2 (some centres undefined),0.0589
9,O=C(/C=C/c1cccc([N+](=O)[O-])c1)NCCN1C(=O)S/C(=C\c2ccc(F)cc2)C1=O,-0.249
10,CC1CN(C2CCN(S(=O)(=O)c3ccc(F)cc3)CC2)CC(C)O1 (centres undefined),-0.0455
11,O=c1c(Cc2ccc(Cl)cc2Cl)c(O)ccn1Cc1ccc(Cl)cc1,-0.479
12,CCOC(=O)N1CCN(Cc2nc(-c3cccc(C)c3)no2)CC1,-0.0353
13,Cc1ccc2cn[nH]c2c1NC(=S)NC(=O)c1ccccc1,0.256
14,Oc1c(CN2CCCCC2)cc(COCc2ccccc2)c2cccnc12,0.255
15,Cc1ccc(/C=N/NS(=O)(=O)c2ccc([N+](=O)[O-])cc2)o1,-0.0789
16,COc1ccc(CN2C(=O)CCC2(C)C(=O)NC2CCCCC2)c(OC)c1 (centres undefined),-0.917
17,CC(C)CSc1nnc2[nH]c(=O)cc(N)n12,-0.321
18,C=CCn1c(SCc2nc3ccccc3nc2C)nnc1-c1ccoc1C,0.403
19,Cc1ccc(C2CC(=O)NC(SCc3ccccc3)=C2C#N)cc1 (centres undefined),-0.422
20,O=c1c2ccccc2n(Cc2ccccc2F)c(=O)n1Cc1ccccc1F,-0.376
21,CCc1ccc(NC(=O)C(C)OC(=O)CCC(=O)c2cccs2)cc1 (centres undefined),0.0294
22,Cn1c(Cn2nnc3ccccc32)nnc1SCC(N)=O,-0.159

row,SMILES,z-score
1,CCOc1ccc(-c2[nH]ncc2Oc2ccccc2OCC)c(O)c1,-0.433
2,CCNC(=O)COC(=O)C1C(C(=O)OCC)=C(C)NC(C)=C1C(=O)OCC,-0.145
3,COc1ccc(Cn2nnnc2CN2CCOCC2)cc1,0.725
4,Cc1cccc(N2CCN(C(=O)c3ccc(NS(=O)(=O)c4c(C)noc4C)cc3)CC2)c1C,-0.359
5,c1ccc(-c2nnc3sc(-c4ccncc4)nn23)cc1,-0.611
6,CCCNC(=O)C1=C(C)C(=O)OC12CCC(C)CC2 (centres undefined),0.192
7,CSCC[C@H](NC(=O)C(C)Oc1ccc(Cl)cc1)c1nc2ccccc2[nH]1 (some centres undefined),-0.164
8,CC(=O)N1CCN(C(=O)CC2OC(=O)c3ccccc32)CC1 (centres undefined),0.277
9,O=C(COc1ccc2c(c1)CCC2)NCc1ccccc1,-0.24
10,Cc1ccc(NC(=O)COc2ccccc2)c(NC(=O)c2ccccc2C)c1,0.00484
11,CCOC(=O)N1CCC(NC(=O)Cc2ccc(-n3c(=O)[nH]c4ccccc4c3=O)cc2)CC1,-0.188
12,COc1ccccc1NC(=O)C1=C(C)NC2=C(C(=O)CCC2)C1c1ccc2c(c1)OCO2 (centres undefined),0.742
13,Cc1nc(-c2ccc(Br)cc2)ccc1C(=O)O,-0.162
14,Cc1c(C(=O)N2CCN(c3ncccn3)CC2)sc2nc3n(c(=O)c12)CCCC3,0.452
15,O=C(O)C1CCN(C(=O)c2scc3c2OCCO3)CC1,-0.53
16,Cc1ccc(S(=O)(=O)/N=C(\N)Nc2nc(C)c3ccccc3n2)cc1,-0.281
17,Cc1cc([N+](=O)[O-])ccc1NC(=O)c1cncc(Br)c1,-0.249
18,CCc1nc2ccccc2c(C(=O)Oc2ccc(C(=O)OC)cc2)c1C,0.354
19,O=C(CN1C(=O)CC(c2ccccc2)=Nc2ccccc21)NCc1ccco1,-0.414
20,COc1cc(S(=O)(=O)N(C)C)ccc1F,-0.0878
21,CCCN(Cc1ccc(N(C)C)cc1)CC1CC1,-0.858
22,Cc1cc(-c2cccs2)nc(-n2cccc2)n1,-0.173

row,SMILES,z-score
1,CCOC(=O)CSc1cccc2cccnc12,active: 4.08
2,Cc1cccc(NC(=O)Cn2cnc3ccc(S(=O)(=O)N4CCC(C)CC4)cc3c2=O)n1,-0.921
3,O=P(O)(O)CP(=O)(O)O,0.0712
4,CCc1nc(SCC(=O)NCc2ccccc2)c2c(=O)n(C)c(=O)n(C)c2n1,-0.451
5,CCSc1nc2c(c(=O)[nH]1)C(c1cccnc1)C(C(=O)OC(C)C)=C(C)N2 (centres undefined),0.232
6,CN(C)CCNC(=O)/C(=C/c1ccc(-c2ccc(Cl)cc2Cl)o1)NC(=O)c1ccccc1,1.11
7,Cc1nn(Cc2ccccc2)c(Cl)c1C(=O)OCc1nnc(-c2ccc(Cl)cc2)o1,0.144
8,O=C1CC(c2ccccc2)n2nc(NC(=O)c3ccccc3)nc2N1 (centres undefined),0.0993
9,COc1ccc2nc(C)cc(SCC(=O)Nc3c(C)cc(C)cc3C)c2c1,-0.106
10,COC(=O)C1=C(NC(=O)c2cccs2)CCS1,-0.0166
11,COc1ccc(/C=N\NC(=O)CCc2c(C)n[nH]c2C)c(OC)c1OC,-0.262
12,Cc1nn(-c2ccccc2)c2c1C(c1ccc([N+](=O)[O-])cc1)N1C(=N2)C(=O)Nc2ccccc21 (centres undefined),-0.45
13,Cc1ccc2ncc([N+](=O)[O-])n2c1,0.0429
14,COC(=O)C1=C(C)N(C2CCCCC2)C(=O)C1,-0.179
15,CC1(C)Cc2c(sc(NC(=O)C(C)(C)C)c2C#N)C(C)(C)N1,0.0442
16,CCOC(=O)c1cc(C(=O)Nc2ccc(C)c(F)c2)nn1C,-0.369
17,CCOc1c(OC)ccc2c3c(c(=O)oc12)CCCC3,-1.06
18,COc1ccc(C(=O)CSc2nnc(CNC(=O)c3ccc(OC)c(OC)c3)n2C)cc1,-0.646
19,CC(C)CCNC(=O)NC(=O)CSc1nnc(COc2ccccc2Cl)o1,-0.278
20,CSc1ccc(-c2nnn(Cc3ccc(Br)cc3)n2)cc1,-0.0597
21,COc1cc(NC(=S)N2CCN(C/C=C/c3ccccc3)CC2)cc(OC)c1,-0.303
22,O=c1oc2ccc3ccccc3c2c2c1SC(C(F)(F)F)C2 (centres undefined),-0.243

row,SMILES,z-score
1,CCn1nnnc1SCC(=O)c1ccc(NC(C)=O)cc1,-0.32
2,O=C(Nc1ccccc1Cc1ccccc1)c1ccc2c(c1)SC1=NS(=O)(=O)CCN12,0.079
3,CC(C(=O)NC1CCCCCC1)N(c1ccccc1)S(C)(=O)=O (centres undefined),-0.247
4,CC1=CC(C)(C)n2c(O)c(C3=NC(=S)NC3=O)c3cc(OC(=O)c4cccc5ccccc45)cc1c32,0.0745
5,CC(=O)NNc1ccc(C(F)(F)F)cc1[N+](=O)[O-],0.121
6,COc1cc(C(N)=O)cc(Br)c1OCc1ccccc1,-0.202
7,Cc1ccc(OCC(=O)Nc2cccc(S(=O)(=O)N3CCCCC3)c2)c([N+](=O)[O-])n1,0.216
8,Cc1cccc(C)c1NS(=O)(=O)c1c(C)[nH]c(=O)[nH]c1=O,0.567
9,CC(OC(=O)/C=C/c1ccco1)C(=O)Nc1cccc([N+](=O)[O-])c1 (centres undefined),-0.214
10,N#Cc1c(-c2ccco2)cc(-c2cccnc2)nc1N,-0.682
11,C=CCOC(=O)Nc1snnc1C,-0.148
12,CN(C)/C=C1\N=C(c2ccc3c(c2)OCO3)OC1=O,-0.144
13,COc1ccc(F)cc1S(=O)(=O)N1CCCN(S(=O)(=O)c2cc(F)ccc2OC)CC1,0.471
14,C=CCNc1ncnc2c1[nH]c1ccc(Cl)cc12,-0.349
15,CCCCC(=O)Nc1ccc(NC(=O)C2CC2)nc1,0.252
16,CC(=O)c1cccc(N(C(=O)c2cnccn2)C(C(=O)NCc2ccccc2)c2ccco2)c1 (centres undefined),0.223
17,Cc1c(C(O)CN2CCN(Cc3ccc4c(c3)OCO4)CC2)c2ccccc2n1C (centres undefined),-0.173
18,Cc1ccccc1NC(=O)COC(=O)CNC(=O)c1sc2ccccc2c1Cl,-1.08
19,CCCCOc1ccc(C(=O)Nn2cnnc2)cc1,-0.26
20,COc1ccc(-c2nc(CS(=O)CC(=O)NCc3cccnc3)c(C)o2)cc1OC (centres undefined),0.196
21,COc1ccc2c(C)nc(Nc3nc(C)cc(C)n3)nc2c1,0.0553
